# Assay results as given in PubChem BioAssay AID1865 (National Center for Advancing Translational Sciences (NCATS), 2009).
# The campaign covered roughly 280,000 compounds. About 540 (0.19%) were called active. The inconclusive results got no clear call from the source; some entries with a clear call stand among them for comparison. Calls come from the whole dose curve; as a rule, active = well fitted activation curve with a large enough effect; inconclusive = small, poorly fitted or top-dose-only effect; inactive = flat fitted curve, though single readings scatter. Potencies beside an inconclusive call are fits to weak or partial responses and may not hold up.
# Assay: Quantitative High-Throughput Screen for Regulators of Epigenetic Control; note: nearly all actives have a fitted effect of over 60% in size; for GFP activation: % of control where 0% means no effect
# Conditions: murine LDR cells, GFP reporter derepression, 30 h; GFP activation: at 53.9 µM (top of the series)
# Method in brief: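 Reporter derepression read as number of fluorescent GFP-positive objects, 20-120 um in size, counted by laser-scanning cytometer. Mouse LDR line with an epigenetically silenced CMV-GFP locus; compound incubation 30 h, 37 C.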
# Potency is the fitted concentration of half-maximal effect; tags give direction and shape of the fitted curve.
Compound,GFP activation,Potency
COc1ccc(Nc2c([N+](=O)[O-])ccc3c2=NC2(CCCCC2)N=3)cc1,inactive: 1.25%,–
Nc1ncnc(Nc2cc(Cl)cc(Cl)c2)c1[N+](=O)[O-],–,"inconclusive: 4.47 µM [activator, single point]"
COc1ccc(-c2noc(N3CCC(C(=O)Nc4ccc(C)c(F)c4)CC3)n2)cc1OC,inactive: 0.124%,–
Cc1cccc(-n2c(=O)c3c(c4cc(C)ccc4n3C)n(Cc3ccccc3F)c2=O)c1,–,"inconclusive: 6.31 µM [activator, single point]"
Cc1cccc(NC(=O)CN2C(=O)N/C(=C/c3ccc(C)s3)C2=O)c1,–,"inconclusive: 35.5 µM [activator, single point]"
COc1ccc(C(=O)/C=C/Nc2ccc([N+](=O)[O-])cc2C)cc1OC,–,"inconclusive: 35.5 µM [activator, single point]"
N#C/C(=C/c1ccc(N2CCOCC2)o1)C(=O)Nc1ccccc1,–,"inconclusive: 5.62 µM [activator, partial curve]"
Cc1cccc(Oc2c([N+](=O)[O-])c(=O)n(C)c3ccccc23)c1,–,"inconclusive: 3.55 µM [activator, single point]"
O=C(Nc1ccncc1)c1ccc2ccccc2c1,inactive: 0.0737%,–
COC(=O)/C=C1\S/C(=N/NC(=O)c2ccc(OC)cc2)NC1=O,inactive: 0.935%,–
O=C(N/N=C/c1cccnc1)c1ccc(NC(=O)C(c2ccccc2)c2ccccc2)cc1,inactive: 5.77%,–
CC1CCc2nc3ncn(CC(=O)Nc4cccc(C#N)c4)c(=O)c3cc2C1 (stereo not given),inactive: 1.69%,–
COC(=O)CN(c1ccc(C)c(Cl)c1)S(C)(=O)=O,inactive: 0.99%,–
N#C/C(=C\N1CCN(Cc2ccc3c(c2)OCO3)CC1)c1nc2ccccc2s1,–,"inconclusive: 25.1 µM [activator, single point]"
Cc1nn(-c2ccc(Cl)cc2)c2nc(-c3cccnc3)cc(C(F)(F)F)c12,inactive: -1.36%,–
COc1ccc(NC(=O)C(=O)NCCCO)cc1Cl,–,"inconclusive: 5.62 µM [activator, single point]"
O=C(O)CC1(CC(=O)Nc2ccc3ccccc3n2)CCCCC1,inactive: 0.0322%,–
CCn1cc(S(=O)(=O)c2cccc(Cl)c2)c(=O)c2cc(F)c(N3CCN(C)CC3)cc21,–,"inconclusive: 20 µM [activator, single point]"
CCOC(=O)c1sc(NC(=O)c2ccc(S(=O)(=O)N(CC)CC)cc2)nc1C,–,"inconclusive: 28.2 µM [activator, partial curve, poor fit]"
CCOC(=O)C1=C(C)N(c2ccc(OC)cc2)C(=O)/C1=C\c1ccc(O)c(OCC)c1,–,"inconclusive: 14.1 µM [activator, single point]"
CNC(=O)c1c(NC(=O)c2nc(SCc3ccc(C)cc3)ncc2Cl)sc2c1CCCC2,–,active: 22.4 µM
CCCS(=O)(=O)c1ncc(Cl)c(C(=O)Nc2c(C(=O)Nc3ccccc3)oc3ccccc23)n1,–,"inconclusive: 35.5 µM [activator, single point]"
CCCCCCNC(=O)N[C@H](C(=O)NCCC[C@H]1CN2C(=NC[C@H]2C)N1CCC(c1ccccc1)c1ccccc1)C(C)O (stereo not given in full),–,"inconclusive: 20 µM [activator, single point]"

Compound,GFP activation,Potency
CCN(c1ccccc1C)S(=O)(=O)c1nnc(NC(=O)c2ccco2)s1,–,"inconclusive: 17.8 µM [activator, single point]"
Cc1ccc(CCNC(=O)CCS(=O)(=O)c2cc3c(cc2Cl)NC(=O)CO3)cc1,inactive: 0%,–
OC1C=CSc2nc3ccccc3n21 (stereo not given),–,"inconclusive: 31.6 µM [activator, single point]"
O=C(Cn1cc2c(n1)CCCC2)NCCCN1CCN(c2ccccc2F)CC1,inactive: 0.73%,–
Cc1c(NC(=O)c2sc3ccccc3c2Cl)cccc1-c1nc2ccccc2o1,–,"inconclusive: 31.6 µM [activator, single point]"
O=C(C[n+]1ccccc1)c1ccc(-c2ccccc2)cc1,inactive: -0.179%,–
CCN1CCN(c2cc(C)c3cc(NC(=O)/C=C/c4ccc(C)cc4)ccc3n2)CC1,–,"inconclusive: 35.5 µM [activator, single point]"
Cc1ccc(N2C(=O)CS/C2=N\C(=S)Nc2ccccc2)cc1,–,"inconclusive: 31.6 µM [activator, single point]"
CC(C(=O)O)N1C(=O)C2C3CC(C2C1=O)C1C(c2ccccc2)c2sc(=O)[nH]c2SC31 (stereo not given),inactive: -2.62%,–
O=C(Nc1ccsc1C(=O)N1CCCCCC1)c1ccccc1,–,"inconclusive: 15.8 µM [activator, single point]"
COc1ccc(-c2nc3ccccc3n3c(-c4ccc(OC)cc4)c4c(=O)n(C)c(=O)n(C)c4c23)cc1,inactive: -0.962%,–
CCc1c(C)nc2ncnn2c1N1CCC(C(=O)NCc2cccs2)CC1,inactive: 0%,–
COc1ccccc1NC(=O)Cn1c(=O)n(CC2CCC(C(=O)NCCc3ccccc3)CC2)c(=O)c2ccccc21 (stereo not given),–,"inconclusive: 35.5 µM [activator, single point]"
COC(=O)c1ccc(NC(=O)CN(C2CCCCC2)S(C)(=O)=O)cc1,inactive: 0%,–
CCOc1ccc(/C=C/c2nc(C#N)c(N3CCC(C)CC3)o2)cc1,–,"inconclusive: 3.16 µM [activator, single point]"
COC(=O)c1ccc(NC(=O)COC(=O)c2nc3nccc(C)n3n2)cc1,–,"inconclusive: 3.16 µM [activator, single point]"
Nc1ncnc2nc(-c3ccc(N4CCOCC4)nc3)cc(-c3cccc(Br)c3)c12,–,"inconclusive: 35.5 µM [activator, single point]"
COc1cc(/C=C(\C#N)c2nc3ccccc3[nH]2)cc(Br)c1OCc1ccc(F)cc1,–,"inconclusive: 35.5 µM [activator, single point]"
CCn1ncc(NC(=S)Nc2ccc(OC)c(OC)c2)c1C(N)=O,–,"inconclusive: 3.55 µM [activator, single point]"
O=C(NC(=S)Nc1cc(Cl)ccc1O)c1cccc(Br)c1,inactive: 12.5%,–
CCOc1cc(/C=C2\SC(=S)N(N3CCOCC3)C2=O)ccc1O,–,"inconclusive: 35.5 µM [activator, single point]"
NS(=O)(=O)c1ccc(CCn2c(=S)[nH]c3ccc(F)cc3c2=O)cc1,–,"inconclusive: 12.6 µM [activator, single point]"
